# Measured values from the supplement of paper PMC9938546.
# Structures can show the parent of a compound that is named as a salt. Some of the results follow. Many values rest on one well or one pass, so single values are uncertain.
# System: HCT116-GFP
# Experiment: HCT116-GFP viability (GFP intensity) relative to untreated control, monoculture; higher = less cancer cell killing
# Settings: culture: HCT116-GFP monoculture; 10 µM; 72 h
# 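Note: viability estimated indirectly by image-based GFP quantification with live-cell imaging of the constitutively GFP-expressing human colorectal cancer line, no immune cells added.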
row,Compound,HCT116-GFP viability
1,C[C@]12CC[C@@H]3c4ccc(OC(=O)N(CCCl)CCCl)cc4CC[C@H]3[C@@H]1CC[C@@H]2O [Estramustine],25.4%
2,"CCC1(c2ccc(N)cc2)CCC(=O)NC1=O (configuration not stated) [Glutethimide, para-amino]",101%
3,CC[C@@]1([C@@H]2O[C@@H]([C@H]3O[C@@](O)(CO)[C@H](C)C[C@@H]3C)C[C@@H]2C)CC[C@H]([C@]2(C)CC[C@]3(C[C@H](O)[C@@H](C)[C@@H]([C@@H](C)[C@@H](OC)[C@H](C)C(=O)O)O3)O2)O1 [Monensin sodium salt],24.3%
4,CCN(C)C(=O)Oc1cccc([C@H](C)N(C)C)c1 [Rivastigmine],114%
5,CN(C)C(=O)Oc1cc(OC(=O)N(C)C)cc(C(O)CNC(C)(C)C)c1 (configuration not stated) [Bambuterol hydrochloride],102%
6,CCn1cc(C(=O)O)c(=O)c2cc3c(cc21)OCO3 [Oxolinic acid],95.9%
7,C[C@]12CC[C@H](O)C[C@@H]1CC[C@@H]1[C@@H]2CC[C@]2(C)C(=O)CC[C@@H]12 [Epiandrosterone],97.8%
8,"NCC(O)c1ccc(O)cc1 (racemic) [(+,-)-Octopamine hydrochloride]",93.3%
9,CN1[C@@H]2CC[C@H]1C[C@@H](OC1c3ccccc3CCc3ccccc31)C2 [Deptropine citrate],76.3%
10,COc1ccc(Cc2nccc3cc(OC)c(OC)cc23)cc1OC [Papaverine hydrochloride],56.8%
11,CCC1(CC)C(=O)C=CNC1=O [Pyrithyldione],84.6%
12,CC(C)(C)NCC(O)c1cc(Cl)c(N)c(Cl)c1 (configuration not stated) [Clenbuterol hydrochloride],92.9%
13,Fc1ccc(C(OCCN2CCN(CCCc3ccccc3)CC2)c2ccc(F)cc2)cc1,24%
14,CC(=O)O[C@H]1C[C@H](O[C@H]2[C@@H](O)C[C@H](O[C@H]3[C@@H](O)C[C@H](O[C@H]4CC[C@@]5(C)[C@H](CC[C@@H]6[C@@H]5C[C@@H](O)[C@]5(C)[C@@H](C7=CC(=O)OC7)CC[C@]65O)C4)O[C@@H]3C)O[C@@H]2C)O[C@H](C)[C@H]1O[C@@H]1O[C@H](CO)[C@@H](O)[C@H](O)[C@H]1O [Lanatoside C],3.68%
15,COc1ccc(CCN2CCC(Nc3nc4ccccc4n3Cc3ccc(F)cc3)CC2)cc1 [Astemizole],5.53%
16,Oc1cc(Cl)ccc1Oc1ccc(Cl)cc1Cl [Triclosan],77.8%
17,C[N+]1([O-])[C@@H]2C[C@@H](OC(=O)[C@H](CO)c3ccccc3)C[C@H]1[C@@H]1O[C@@H]12 (some centres not stated) [Scopolamin-N-oxide hydrobromide],114%
18,C[C@]12N[C@H](Cc3ccccc31)c1ccccc12 [Dizocilpine maleate],88.8%
19,O[C@@H]1CCCC[C@H]1N1CCC(c2ccccc2)CC1 [L(-)-vesamicol hydrochloride],101%
20,CCN(CC)C(C)C(=O)c1ccccc1 (configuration not stated) [Amfepramone hydrochloride],97.5%
21,CO[C@]12C[C@@H](COC(=O)c3cncc(Br)c3)CN(C)[C@@H]1Cc1cn(C)c3cccc2c13 [Nicergoline],69.9%
22,"CC(=O)OCC1=C(C(=O)O)N2C(=O)[C@@H](N)[C@H]2SC1 [Cephalosporanic acid, 7-amino]",89.6%
23,C[N+]12CCC(CC1)C(OC(=O)C(O)(c1ccccc1)c1ccccc1)C2 (configuration not stated) [Clidinium bromide],106%
24,C[C@@]12N[C@@H](Cc3ccccc31)c1ccccc12 [(-)-MK 801 hydrogen maleate],102%

row,Compound,HCT116-GFP viability
1,C[C@]12Cc3c[nH]nc3C[C@@H]1CC[C@@H]1[C@@H]2CC[C@@]2(C)[C@H]1CC[C@]2(C)O [Stanozolol],94.9%
2,CC(C)C[C@H](CN)CC(=O)O [Pregabalin],98.7%
3,CC(C)(C)NCC(O)c1ccccc1Cl (configuration not stated) [Tulobuterol],93.8%
4,COc1cc([C@@H]2c3cc4c(cc3[C@H](O)[C@H]3COC(=O)[C@H]23)OCO4)cc(OC)c1OC [Podophyllotoxin],8.81%
5,CCC1(c2cccc(O)c2)CCCCN(C)C1 (configuration not stated) [Meptazinol hydrochloride],102%
6,C[C@@H]1CC[C@H]2[C@@H](C)C(=O)O[C@@H]3O[C@@]4(C)CC[C@@H]1[C@]32OO4 [Artemisinin],65.9%
7,CCN(C(C)=O)c1cccc(-c2ccnc3c(C#N)cnn23)c1 [Zaleplon],87.8%
8,NCCc1c[nH]c2ccc(O)cc12 [Serotonin hydrochloride],89%
9,CCC(COC(=O)c1cc(OC)c(OC)c(OC)c1)(c1ccccc1)N(C)C (configuration not stated) [Trimebutine],70.6%
10,Clc1ccc(C(OCCN2CCCCC2)c2ccccc2)cc1 (configuration not stated) [Cloperastine hydrochloride],68.7%
11,CN1CCN(C(=O)OC2c3nccnc3C(=O)N2c2ccc(Cl)cn2)CC1 (configuration not stated) [Zopiclone],102%
12,C[C@]12CC[C@H](O)C[C@H]1CC[C@@H]1[C@@H]2C[C@@H](O)[C@]2(C)[C@@H](C3=CC(=O)OC3)CC[C@]12O [Digoxigenin],2.78%
13,CC(Cc1ccccc1)NCCC(c1ccccc1)c1ccccc1 (configuration not stated) [Prenylamine lactate],37%
14,CC(=O)NC1CCSC1=O (racemic) [N-Acetyl-DL-homocysteine Thiolactone],79.2%
15,NC(=O)C[S+]([O-])C(c1ccccc1)c1ccccc1 (configuration not stated) [Modafinil],98.5%
16,Cc1cccc(C)c1NC1=NCCCS1 [Xylazine],100%
17,O=P1(NCCCl)OCCCN1CCCl (configuration not stated) [Ifosfamide],99.8%
18,C=C(C)[C@@H]1[C@H]2OC(=O)[C@@H]1[C@]1(O)C[C@H]3O[C@]34C(=O)O[C@H]2[C@]14C [Picrotoxinin],103%
19,CC(C)c1c(CN(C)C(C)Cc2ccccc2)n(C)n(-c2ccccc2)c1=O (configuration not stated) [Famprofazone],87%
20,NC(=O)CN1CCCC1=O [Piracetam],94.2%
21,CC(=O)OCC(=O)[C@H]1CC[C@H]2[C@@H]3CC[C@H]4C[C@H](O)CC[C@]4(C)[C@H]3C(=O)C[C@]12C [Alfadolone acetate],87%
22,CC(C)CC(N(C)C)C1(c2ccc(Cl)cc2)CCC1 (configuration not stated) [Sibutramine hydrochloride],87.5%
23,O=C([O-])c1ccccc1-c1c2cc(Br)c(=O)cc-2oc2[c]([Hg+])c([O-])c(Br)cc12.[Na+].[Na+].[OH-] [Merbromin],86.7%
24,O=c1[nH]c2ccccc2n1CCCN1CCC(n2c(=O)[nH]c3cc(Cl)ccc32)CC1 [Domperidone],84.3%

row,Compound,HCT116-GFP viability
1,C#C[C@]1(O)CC[C@H]2[C@@H]3CCC4=CC(=O)CC[C@]4(C)[C@H]3CC[C@@]21C [Ethisterone],90.9%
2,CC(C)[N+](C)(CCC(C(N)=O)(c1ccccc1)c1ccccc1)C(C)C [Isopropamide iodide],108%
3,S=C(NC1CCCCC1)N1CCC(c2cnc[nH]2)CC1 [Thioperamide maleate],97.5%
4,COc1ccc2c(c1)[C@]13CCCC[C@@H]1[C@H](C2)N(C)CC3 [Dextromethorphan hydrobromide monohydrate],82.1%
5,"CNCC(O)c1ccc(O)cc1 (racemic) [(+,-)-Synephrine]",99.5%
6,C[C@]12CC[C@@H](O)C[C@@H]1CC[C@@H]1[C@@H]2CC[C@]2(C)C(=O)CC[C@@H]12 [Androsterone],103%
7,C=CC[C@]1(O)CC[C@H]2[C@@H]3CCC4=CC(=O)CCC4=C3C=C[C@@]21C [Altrenogest],80%
8,C1CCc2nnnn2CC1 [Pentylenetetrazole],106%
9,CC(Cc1ccc(O)cc1)NCC(O)c1cc(O)cc(O)c1 (configuration not stated) [Fenoterol hydrobromide],89.7%
10,CC(C)N(CCC(C(N)=O)(c1ccccc1)c1ccccn1)C(C)C (configuration not stated) [Disopyramide],105%
11,C[C@H](N)[C@H](O)c1ccc(O)c(O)c1 [Levonordefrin],111%
12,O=[N+]([O-])O[C@@H]1CO[C@H]2[C@@H]1OC[C@@H]2O [Isosorbide mononitrate],108%
13,CN[C@@H]1C[C@@H](c2ccc(Cl)c(Cl)c2)c2ccccc21 [Indatraline hydrochloride],51%
14,CN1[C@@H]2CC[C@H]1C[C@@H](OC(=O)[C@H](CO)c1ccccc1)C2 [Hyoscyamine (L)],114%
15,C[C@]12CC[C@H]3[C@@H](CCC4=CC(=O)CC[C@@H]43)[C@@H]1CC[C@@H]2O [Nandrolone],96%
16,COc1ccc(CN2CCNCC2)c(OC)c1OC [Trimetazidine dihydrochloride],104%
17,CCCN1C[C@H](CSC)C[C@@H]2c3cccc4[nH]cc(c34)C[C@H]21 [Pergolide mesylate],93.9%
18,COc1ccc(CCN)cc1OC [Homoveratrylamine],93%
19,"CC[C@@]1(O)C(=O)OCc2c1cc1n(c2=O)Cc2cc3ccccc3nc2-1 [Camptothecine (S,+)]",6.54%
20,CCC(=O)O[C@@](Cc1ccccc1)(c1ccccc1)[C@@H](C)CN(C)C [Levopropoxyphene napsylate],107%
21,C[N+](C)(C)CCCCCCCCCC[N+](C)(C)C [Decamethonium bromide],97.4%
22,c1ccc2nc(N3CCNCC3)ccc2c1 [Quipazine dimaleate salt],105%
23,C[N+]1(C)[C@@H]2CC[C@H]1C[C@@H](OC(=O)C(CO)c1ccccc1)C2 (some centres not stated) [Methylatropine nitrate],102%
24,CN1C[C@H](C(=O)N[C@]2(C)O[C@@]3(O)[C@@H]4CCCN4C(=O)[C@H](Cc4ccccc4)N3C2=O)C[C@@H]2c3cccc4[nH]cc(c34)C[C@H]21 [Dihydroergotamine tartrate],103%
